The results in this text go back to the RNAGym collection of RNA variant scans (doi:10.1073/pnas.2313332121).

First the molecules themselves.
B1: TPR 5TU (parent)
chain: GGAUCUUCUCGAUCUAACAAAAAAGACAAAUCUGCCACAAAGCUUGAGAGCAUCUUCGGAUGCAGAGGCGGCAGCCUUCGGUGGCGCGAUAGCGCCAACGUUCUCAACUAUGACACGCAAAACGCGUGCUCCGUUGAAUGGAGUUUAUCAUG

Variants at the background level are over-represented here.

In the data set the parent is B1. In words: polymerase ribozyme fitness, log enrichment relative to wild type (log ratio); higher = more active; in vitro selection for triplet polymerase activity. In outline:
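A single round of triplicate in vitro selection, including frozen incubation at −7 °C, was applied to PCR-built, transcribed mutant libraries of each subunit of a heterodimeric triplet polymerase ribozyme. Illumina sequencing of input and output libraries retained genotypes with ≥10 input reads and ≥1 read per output. Fitness is the base-2 logarithm of genotype enrichment divided by wild-type enrichment, from inverse-variance-weighted replicate averages.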
For the variant C75G G86C C87U, the “polymerase ribozyme fitness (log ratio)” value is no more than -4.2.
To C76A U151A belongs no more than -4.2; to C72A C85A U90C A106C G152U, no more than -4.2.
In the case of A73G C87U U102A, the “polymerase ribozyme fitness (log ratio)” value was no more than -4.2.
To C75U G94C G100U A107G belongs no more than -4.2; to C76A C105U, -2.47.
In the case of G74A A115G G143U, the “polymerase ribozyme fitness (log ratio)” value is no more than -4.2.
To C76A G88C A89U U101C C114U belongs no more than -4.2; to A73U C75U C118G, no more than -4.2.
With G74A C75G A91U A119G G133A G140C G143C, the “polymerase ribozyme fitness (log ratio)” value was no more than -4.2.
To G74A C76A G86U A137G belongs no more than -4.2; to A73G A142C, -1.76.
With A73G U82G A89U C93A C116G C125G G133C the figure was no more than -4.2; with C76A C79A G86A G92A U151A, no more than -4.2.
With G74U G140U the figure was no more than -4.2; with C72G U78A G86A C93A A98G C99U G100C C131U, no more than -4.2.
As to C72G C132U, the “polymerase ribozyme fitness (log ratio)” value is no more than -4.2.
To A73G C85U U139A U146C C149G belongs no more than -4.2.
To C72U U134A belongs -2.32.
To C76A C108G belongs no more than -4.2.
As to C72U C87U A89G C105A U127C A138C G140C, the “polymerase ribozyme fitness (log ratio)” value was no more than -4.2.
In the case of A73U C87A C95A U130A C131U U139G, the “polymerase ribozyme fitness (log ratio)” value is no more than -4.2.
With C72A U77A G88C C93G U111G A137U U139G the figure was no more than -4.2.
To C75G C76A G92A C103U belongs no more than -4.2.
To C76A C96A A107C U109G belongs no more than -4.2; to A73U C123U, -0.392.
As for C72U A89G A137U, the “polymerase ribozyme fitness (log ratio)” value was no more than -4.2.
Turning to A73U G100U U104A G126C, the “polymerase ribozyme fitness (log ratio)” value was no more than -4.2.
With C75U G86C G100A G117U the figure was no more than -4.2.
A73U A91C U145G: the “polymerase ribozyme fitness (log ratio)” value was no more than -4.2.
With G74A U127A the figure was no more than -4.2; with G74C G88A A91U, no more than -4.2; with C76G C96U, no more than -4.2.
As to C72U U78G G92C U127C, the “polymerase ribozyme fitness (log ratio)” value is no more than -4.2.
With C75G U77A A91G A106U U134G the figure was no more than -4.2; with C75U C87A U104A A113U, no more than -4.2.
With C75G C85G G124A the figure was no more than -4.2; with G71U G140U, no more than -4.2; with C75A C95U, no more than -4.2.
To G74U C87A C95U C105U belongs no more than -4.2; to C75A A121U U145C, no more than -4.2; to C76A G80C G141C, no more than -4.2.
In the case of C72A G86A C99A C149A, the “polymerase ribozyme fitness (log ratio)” value was no more than -4.2.
To C72G G81U C87A C95U U104A belongs no more than -4.2; to A73G C96G C105A U139A, no more than -4.2.
To C72U G124U A142G belongs -2; to C76A U109G G143A U146A, no more than -4.2; to C75G U77G G92C U148C, no more than -4.2.
Turning to C76A G83A A91U A106C C108A U130A, the “polymerase ribozyme fitness (log ratio)” value was no more than -4.2.
A73G G83U G84U: the “polymerase ribozyme fitness (log ratio)” value is -1.48.
Consider C72U C79A C108U C123G G140U, for which the “polymerase ribozyme fitness (log ratio)” value was no more than -4.2.
Consider A73U U90G G117U G133U, for which the “polymerase ribozyme fitness (log ratio)” value was no more than -4.2.
To A73G C93A A110C U139A belongs no more than -4.2; to C72U G86A C95A A97G A98U U104A A122U, no more than -4.2; to C76A G88C G92C A98G U102A C131G, no more than -4.2.
To A73C G92A G94U belongs no more than -4.2; to C75G C87G, no more than -4.2.
For the variant C75G A142U, the “polymerase ribozyme fitness (log ratio)” value was -3.7.
With C75U A91C A119G G136U the figure was no more than -4.2.
To C72A C85A A147G G152U belongs no more than -4.2; to G71U G88U A142G, no more than -4.2; to C75U U111G U146G, no more than -4.2.
With C75G A122C G143A the figure was no more than -4.2; with C72G C85G, no more than -4.2; with C75U C85U U111G A121U G152A, no more than -4.2.
With C75G C85U A106C A115G G141U, the “polymerase ribozyme fitness (log ratio)” value is no more than -4.2.
With A73G G126C the figure was 0.529.
To C75A G141A belongs no more than -4.2; to C75U C87A G88A C118G A147U, no more than -4.2; to C72U C87G U104A A115G, no more than -4.2.
As to C72U C85A U102G G141A, the “polymerase ribozyme fitness (log ratio)” value is no more than -4.2.
With G71U G83C the figure was -2.74; with A73U C76A U77A G94C U104G A106G C108U, no more than -4.2; with A73G A89U, -0.161.
In the case of C75G C85G A147U, the “polymerase ribozyme fitness (log ratio)” value is no more than -4.2.
Take A73U G94A G152C: the “polymerase ribozyme fitness (log ratio)” value was no more than -4.2.
To C75G C103A belongs no more than -4.2; to C75G C103A U127C, no more than -4.2; to C75A G83A A98U, -4.16.
For the variant G71U C76A G83C A91G G124U, the “polymerase ribozyme fitness (log ratio)” value was no more than -4.2.
To A73G C85G C87G U135C U148C C149A belongs no more than -4.2.
Turning to C72A G83A C87G A89U A115C U134A, the “polymerase ribozyme fitness (log ratio)” value is no more than -4.2.
To C76A U82G C105A C108G belongs no more than -4.2; to A73G C118G C132G, no more than -4.2; to A73G C96U A119U, -0.341.
To G74A A106C A142C belongs no more than -4.2.
With C76A C96A G128C the figure was no more than -4.2; with C72G A91C, no more than -4.2.
Regarding C75U C79A, the “polymerase ribozyme fitness (log ratio)” value was no more than -4.2.
With G74C C105U A107G the figure was no more than -4.2; with C76A U135C, -1.96; with C72U U77A C79G C93U A119U, no more than -4.2.
As to C75G G81U G84C A137U U146C, the “polymerase ribozyme fitness (log ratio)” value was no more than -4.2.
With C75U A122G G124A C149U the figure was -1.15.
To A73U G84A G92A A122C U134A belongs no more than -4.2; to C75G G92U C103G A122C, no more than -4.2.
To G74C G92A A98C U104G G141A belongs no more than -4.2.
Turning to G71C U82C, the “polymerase ribozyme fitness (log ratio)” value was -2.48.
With G74U C93G the figure was no more than -4.2; with C72G A122G G141U, no more than -4.2.
As to C75A A91C, the “polymerase ribozyme fitness (log ratio)” value was no more than -4.2.
Regarding C75G G92C C123A, the “polymerase ribozyme fitness (log ratio)” value is no more than -4.2.
To C75A G81U U82C C95G C118A belongs no more than -4.2.
For the variant C76A C118A, the “polymerase ribozyme fitness (log ratio)” value is -0.944.
To C76G C79G U104G C129G U144C belongs no more than -4.2.
To C75G G94C belongs -3.53; to C75G G94A, -4.08.
With C75G C79A C87U A89G A91G the figure was no more than -4.2; with A73G C95U, -0.166.
Take G71U G80U G88U U102G A142U: the “polymerase ribozyme fitness (log ratio)” value is no more than -4.2.
With C75G C93U, the “polymerase ribozyme fitness (log ratio)” value is -3.74.
With C75G C93G the figure was no more than -4.2; with C75G C129U, no more than -4.2.
To C75U G84U belongs -2.45; to G71U C76A G80C, no more than -4.2.
As to C75A C76U G86U A106U G126A U148C C149A, the “polymerase ribozyme fitness (log ratio)” value was no more than -4.2.
To C75A C85G U135C G141U belongs no more than -4.2; to G74A U77A, no more than -4.2.
C76A G83A: the “polymerase ribozyme fitness (log ratio)” value is -2.85.
To A73G G94U G143U U144G belongs no more than -4.2.
To G74C C76A C87U C114U C116U belongs no more than -4.2; to A73G C85U C96G C108G U127G G136C, no more than -4.2; to A73C G86U, no more than -4.2.
Consider A73G G86A, for which the “polymerase ribozyme fitness (log ratio)” value is -2.14.
In the case of G71U G88C A97U A138U, the “polymerase ribozyme fitness (log ratio)” value is no more than -4.2.
With A73U C75U G84A C95G U102A G136C G143C the figure was no more than -4.2.
As to A73U C85G C118G G136C, the “polymerase ribozyme fitness (log ratio)” value is no more than -4.2.
To G74A A150U belongs -2.61; to G74C A150C, no more than -4.2; to G74U G81U G88C A89G C95U G128U U148A, no more than -4.2.
On to C75G C93A G124U, for which the “polymerase ribozyme fitness (log ratio)” value is no more than -4.2.
In the case of A73U C99G A106G G140A U144G A147C, the “polymerase ribozyme fitness (log ratio)” value is no more than -4.2.
For A73G G83A, the “polymerase ribozyme fitness (log ratio)” value is -1.72.
C76A C85U G100C: the “polymerase ribozyme fitness (log ratio)” value is no more than -4.2.
To A73C C99G U104A A106G belongs no more than -4.2; to C76A C87U G92C A142G, no more than -4.2.
To C72U A147U belongs 0.651; to C76G C87U U101G, no more than -4.2; to C72A A73G A89U C114A U151G, no more than -4.2.
With G71U C76A G86A A91U the figure was no more than -4.2; with C72G C85A U144C, no more than -4.2.
In the case of G74C C96U A119G U145G, the “polymerase ribozyme fitness (log ratio)” value was no more than -4.2.
C72G C96U C116U: the “polymerase ribozyme fitness (log ratio)” value was no more than -4.2.
To C76A C93A belongs -3.88; to C75G U101G C103G C123U A137C A138C, no more than -4.2.
Turning to G71C G92U, the “polymerase ribozyme fitness (log ratio)” value is -3.46.
With C75A U135C, the “polymerase ribozyme fitness (log ratio)” value was no more than -4.2.
Regarding C72U A122G, the “polymerase ribozyme fitness (log ratio)” value was -0.726.
With C75A C95G C96U, the “polymerase ribozyme fitness (log ratio)” value is no more than -4.2.
To A73U C96G belongs -1.8; to C76G C96G C99G G140U U148G, no more than -4.2; to C72G A89C C103G, no more than -4.2.
With C76A C85A C87U A110C the figure was no more than -4.2; with A73U G83A, -1.97.
Take G74A C85G: the “polymerase ribozyme fitness (log ratio)” value was -3.83.
As for A73G C85A, the “polymerase ribozyme fitness (log ratio)” value is -1.22.
With A73U C103G the figure was no more than -4.2; with A73G A107U, -4.1; with C75U C87A A142G, no more than -4.2.
C75U U139A G140C: the “polymerase ribozyme fitness (log ratio)” value was -4.11.
To C76A A98U belongs -0.0442; to C72A G94C, no more than -4.2; to G71U A147C, -3.65.
To C75U G80C A91G A97U A122G belongs no more than -4.2; to C76A C87U C114U U151G, no more than -4.2.
C76G C93G C103U: the “polymerase ribozyme fitness (log ratio)” value is no more than -4.2.
With C72A G81U G83C C93U the figure was no more than -4.2.
